From PubChem BioAssay AID1454 (National Center for Advancing Translational Sciences (NCATS), 2008)
The whole screen tested about 130,000 compounds, of which about 550 (0.42%) were called active. This list was built around the results that the source calls inconclusive (neither active nor inactive); the mix of calls is not that of the screen. Calls come from the whole dose curve; as a rule, active = well fitted inhibition curve with a large enough effect; inconclusive = small, poorly fitted or top-dose-only effect, or effect the other way; inactive = flat fitted curve, though single readings scatter. No potency is given beside an inconclusive call; the fits are too rough.
Potency is the fitted concentration of half-maximal effect; tags give direction and shape of the fitted curve.

Assay: qHTS Assay for Inhibitors of the ERK Signaling Pathway using a Homogeneous Screening Assay; Stimulation with EGF; note: nearly all actives have a fitted effect of over 55% in size;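 for activity change, negative = inhibition: plate controls were stimulated vehicle wells for no effect and unstimulated vehicle basal for full effect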
Conditions: HEK293-V1b, EGF-stimulated phospho-ERK AlphaScreen; activity change, negative = inhibition: at the top concentration
Method in brief: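 Readout: AlphaScreen signal for phosphorylated ERK in lysed HEK293 cells stably expressing V1b. Stimulus 25 nM EGF, 5 min, following 30 min compound exposure. Data scaled to DMSO basal and full EGF activation.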
For `N#CC(=C=[N-])c1nc2ccccc2nc1-[n+]1cccc(NC(=O)c2ccccc2)c1`, the Potency was inconclusive [inhibitor, single point].
For `Cc1cc2ccccn2c1C(=O)c1ccc(S(=O)(=O)N(C)C)cc1`, the Potency was inconclusive [inhibitor, single point].
With `O=[N+]([O-])c1cccc2ccc(/C=C/c3ccc(F)cc3)nc12` the Potency was inconclusive [inhibitor, full curve, poor fit].
With `CC1(N(O)/C=C2\C=CC=CC2=O)CCCCC1=O` (configuration not stated) the “activity change, negative = inhibition” value was inactive: -15.5% [at 57.5 µM].
In the case of `CN(C)c1ccc2nc3ccc(=[N+](C)C)cc-3sc2c1`, the Potency is reported as inconclusive [activator, partial curve].
With `CC(C)(C)c1ccc(CSc2nnc(-c3ccccc3NC(=O)c3ccccc3)o2)cc1` the “activity change, negative = inhibition” value was inactive: 1.09%.
For `O=C1N=c2ccccc2=C1c1sc(Nc2ccc(O)cc2)nc1O`, the Potency was inconclusive [inhibitor, single point].
In the case of `COc1ccccc1C(=O)NC(=O)Nc1nc(-c2ccccc2)cc(C(F)(F)F)n1`, the Potency is reported as inconclusive [inhibitor, single point].
With `C#C[C@@]1(OC(C)=O)CC[C@@H]2[C@@H]3CCC4=C[C@@H](OC(C)=O)CC[C@H]4[C@H]3CC[C@]21C` the Potency was inconclusive [inhibitor, single point].
In the case of `Cc1cc(Cl)ccc1OCC(=O)N1CCCN(C(=O)COc2ccc(Cl)cc2C)CC1`, the Potency is reported as active: 31.6 µM.
In the case of `Cc1cc(C)c(Cn2ncn(-c3ccc(Br)cc3)c2=O)c(C)c1`, the “activity change, negative = inhibition” value is reported as inactive: -9.07%.
With `CCOCCCNC(=S)N(Cc1ccco1)Cc1cc2cc3c(cc2[nH]c1=O)OCCO3` the Potency was inconclusive [inhibitor, partial curve].
With `Cc1cc(N)c2cc(NC(=O)/C=C/c3ccccc3Cl)ccc2n1` the Potency was inconclusive [inhibitor, single point].
In the case of `CC(C)CCOC(=O)C(C)Sc1n[nH]c(=O)[nH]c1=O` (configuration not stated), the Potency is reported as inconclusive [inhibitor, full curve, poor fit].
With `Cn1nccc1C(=O)Nc1ccc2c(c1)OCCO2` the “activity change, negative = inhibition” value was inactive: -0.98%.
With `O=C1/C(=C/c2ccccc2)N=C(N2CCOCC2)N1c1cccc(Cl)c1` the Potency was inconclusive [activator, partial curve].
For `Nc1n[nH]c(C2CC2)c1N=Nc1ccc(Cl)c(Cl)c1`, the Potency was inconclusive [inhibitor, partial curve].
In the case of `O=[N+]([O-])c1ccccc1/C=N/n1c(C2CCCCC2)n[nH]c1=S`, the Potency is reported as inconclusive [inhibitor, partial curve].
For `COC(=O)[C@@]1(Cc2ccccc2)[C@H]2c3cc(C(=O)N4CCCC4)n(Cc4ccc(C(F)(F)F)nc4)c3C[C@H]2CN1C(=O)c1ccccc1`, the “activity change, negative = inhibition” value was inactive: -0.751%.
In the case of `Cc1cccc(N=C2NC(=O)/C(=C/c3cccs3)S2)c1`, the Potency is reported as active: 25.1 µM.
With `CCOc1ccc(C2c3[nH]c4ccccc4c3CCN2Cc2cccn2-c2ncccn2)cc1` (configuration not stated) the Potency was inconclusive [inhibitor, partial curve, poor fit].
With `Cc1ccc2c(c1)S/C(=C/c1ccc[n+](C)c1)N2CCO` the “activity change, negative = inhibition” value was inactive: -5.32%.
In the case of `COC(=O)c1cc(-c2ccc(S(=O)(=O)N3CCCCC3)cc2)c(C(F)(F)F)s1`, the Potency is reported as inconclusive [activator, full curve, poor fit].
For `Cc1csc(NC(=O)CCc2c(C)nc3cc(-c4ccc(Cl)cc4)nn3c2C)n1`, the Potency was inconclusive [inhibitor, single point].
With `COc1ccc2c(c1)C(=O)[C@@H](OC(=O)NCCOc1ccccc1)[C@H](c1ccc(OC)c(Br)c1)O2` the “activity change, negative = inhibition” value was inactive: -11.9%.
For `CCOc1ccccc1NC(=O)c1cc(C(=O)c2cc(Br)ccc2O)coc1=N`, the Potency was inconclusive [inhibitor, single point].
For `CSS(=O)(=O)c1cccc2cccnc12`, the Potency was inconclusive [inhibitor, single point].
In the case of `Cc1cc(CSc2ccccc2)ccc1NC(=O)c1ccc(CN2CCOCC2)cc1`, the Potency is reported as inconclusive [inhibitor, single point].
With `C#C[C@]1(O)CC[C@H]2[C@@H]3CCc4cc(OC5CCCC5)ccc4[C@H]3CC[C@@]21C` the Potency was inconclusive [inhibitor, single point].
With `S=C(Nc1ccc(Cl)c(Cl)c1)NC1CCN(Cc2ccccc2)CC1` the Potency was inconclusive [inhibitor, single point].
For `COc1cccc(N2CCN(c3ncnc4c3[nH]c3ccccc34)CC2C)c1` (configuration not stated), the Potency was active: 14.1 µM.
For `O=C(OCC(=O)N1CCc2ccccc21)c1cncc(Br)c1`, the “activity change, negative = inhibition” value was inactive: -0.731%.
For `Oc1ccc(/C=N/N2CCN(C3c4ccccc4-c4ccccc43)CC2)cc1O`, the Potency was inconclusive [inhibitor, single point].
With `CC1(CC(=O)NNC(=O)Nc2ccccc2)OCCCO1` the Potency was inconclusive [activator, full curve].
With `Fc1ccccc1Oc1nc(-c2ccncc2)nc2ccccc12` the Potency was inconclusive [inhibitor, single point].
With `CNc1ccc(/C=C/C(=O)c2ccc3c(c2)OCCO3)cc1[N+](=O)[O-]` the Potency was inconclusive [inhibitor, partial curve].
In the case of `CCn1c(SCc2nc3scc(-c4ccccc4)c3c(=O)[nH]2)nnc1-c1cccs1`, the Potency is reported as active: 25.1 µM.
With `CCc1ccc(OCC(O)CN2CCC(CN3C(=O)c4cccc5cccc(c45)C3=O)CC2)cc1` (configuration not stated) the Potency was inconclusive [inhibitor, single point].
In the case of `COc1cc(/C=C/c2nc(-c3ccccc3O)n[nH]2)cc(OC)c1OC`, the Potency is reported as inconclusive [inhibitor, single point].
With `CCOC(=O)N1CCN(C(=O)CSCc2ccc(Br)cc2)CC1` the Potency was inconclusive [activator, partial curve, poor fit].
In the case of `COC[C@H]1O[C@@H](c2c(OC)cc(OC)cc2OC)[C@H](OC)[C@@H](OC)[C@@H]1OC`, the “activity change, negative = inhibition” value is reported as inactive: -3.14%.
For `O=C(/C=C/c1ccc(N2CCC(c3ccccc3)=N2)cc1)c1ccccc1`, the Potency was inconclusive [activator, full curve].
